Experimental data published in PubChem BioAssay AID624417 (National Center for Advancing Translational Sciences (NCATS), 2012).
Several values for one entry are separate records, joined by “and”; a condition that tells them apart may be missing. Identical values can stand only once. Among all 410,000 compounds or so, about 6,400 (1.6%) were called active. Inconclusive means that the source gave no clear call. Such entries were picked first, then a sample of the others. Calls follow the shape of the dose curve; as a rule, active = well fitted inhibition curve with a large enough effect; inconclusive = small, poorly fitted or top-dose-only effect; inactive = no such curve, though single readings can be large or run the other way. Where the call is inconclusive, the potency comes from a doubtful curve fit.

molecular target: Glucagon-like peptide 1 receptor (Homo sapiens) (UniProt P43220); assay: qHTS of GLP-1 Receptor Inverse Agonists (Inhibition Mode); details: HEK293 GLP-1R CRE-luciferase, luminescence, 24 h, GLP-1R form is constitutively active; activity change, negative = inhibition: at 38.3 µM (top of the series) unless noted; also: nearly all actives have a fitted effect of over 55% in size
Summary of the method: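 Constitutively active GLP-1R drives a cAMP-responsive luciferase in stably transfected HEK293 cells; test compounds are added after overnight (12 h) attachment and left 24 hr, and signal loss in luminescence marks inhibition.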
% is scaled to controls: 0 for no effect and ±100 for the full control effect; potency is read from the fitted curve at half-maximal effect; tags tell the direction and shape of the fitted curve.

Chain of UniProt P43220 (P43220 whole entry, looked up): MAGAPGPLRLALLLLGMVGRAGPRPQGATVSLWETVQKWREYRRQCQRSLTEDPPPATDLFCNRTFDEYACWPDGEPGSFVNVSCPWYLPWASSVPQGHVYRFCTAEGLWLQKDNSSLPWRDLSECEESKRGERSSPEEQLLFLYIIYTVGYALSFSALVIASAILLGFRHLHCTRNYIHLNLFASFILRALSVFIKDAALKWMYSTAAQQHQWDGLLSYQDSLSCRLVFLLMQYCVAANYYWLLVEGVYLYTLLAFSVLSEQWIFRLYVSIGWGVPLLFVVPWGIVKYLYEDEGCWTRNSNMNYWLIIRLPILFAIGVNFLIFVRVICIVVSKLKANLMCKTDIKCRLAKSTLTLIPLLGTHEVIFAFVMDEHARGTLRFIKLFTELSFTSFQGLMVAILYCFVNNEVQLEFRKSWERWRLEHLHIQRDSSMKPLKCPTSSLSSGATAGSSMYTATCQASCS

Potency, active:
CC[C@]12c3[nH]c4ccc(Cl)cc4c3CCN1C(=O)[C@@H](CC(=O)NCc1cccc(C(F)(F)F)c1)C[C@@H]2C(=O)N1CCN(C(=O)c2ccco2)CC1 10 µM
CC1CCc2c(cc(-c3ccccc3)n2-c2ccc(C(=O)NC(C)C)cc2)C1 (configuration not stated) 6.31 µM
Cc1onc(-c2ccc3c(c2)OCO3)c1-c1ccc2[nH]ccc2c1 8.91 µM

Potency, inconclusive:
O=C(Nc1nc2ccccc2[nH]1)C12CC3CC(CC(C3)C1)C2 2.82 µM [inhibitor, full curve, poor fit]
COc1ccc(NC(=O)c2cccc(NS(=O)(=O)c3ccccc3)c2)cc1 8.91 µM [inhibitor, partial curve]
O=c1c2ccccc2c(C=NCCCN2CCOCC2)c(O)n1Cc1ccccc1 7.08 µM [inhibitor, partial curve, poor fit]
CCCCC#Cc1ccc(C(=O)NNC(=O)Nc2cc(Cl)cc(Cl)c2)o1 10 µM [inhibitor, partial curve, poor fit]
Cc1cc(C)c(OCCCCN(C)Cc2ccccc2)c(C)c1 11.2 µM [inhibitor, partial curve, poor fit]
CN(C1CCCCC1)S(=O)(=O)c1ccc(-c2ccccn2)s1 22.4 µM [inhibitor, partial curve, poor fit]
CCC1CCCCN1S(=O)(=O)c1ccc(NC(=O)c2nc(S(C)(=O)=O)ncc2Cl)cc1 (configuration not stated) 28.2 µM [inhibitor, single point]
CCCS(=O)(=O)Nc1ccc(N2CCCCC2)c(S(=O)(=O)Nc2ccccc2OC)c1 11.2 µM [inhibitor, partial curve, poor fit]
Cc1ccc(S(=O)(=O)N2CCCN(c3nccc(C(F)(F)F)n3)CC2)cc1 10 µM [inhibitor, single point]
CC(C)(C)c1ccc(OCc2nc3ccccc3n2CCOc2ccccc2)cc1 31.6 µM [inhibitor, single point]
Cc1ccc(C(CNS(=O)(=O)c2ccc(F)cc2)N2CCN(C)CC2)cc1 (configuration not stated) 12.6 µM [inhibitor, partial curve, poor fit]
O=C(/C=C1\NC2(CCCC2)Cc2ccccc21)C(=O)N/N=C/c1ccc(O)c(O)c1 28.2 µM [inhibitor, single point]
CCOC(=O)c1ccccc1NC(=O)CN(c1cccc(C)c1C)S(=O)(=O)c1ccccc1 14.1 µM [inhibitor, single point]
CC(=O)N1CCCc2cc(S(=O)(=O)N3CCCC(C(=O)NCc4ccccc4Cl)C3)ccc21 (configuration not stated) 10 µM [inhibitor, single point] and 3.98 µM [inhibitor, full curve, poor fit]
OCCNCCSc1nc(C2CCCCC2)n(-c2ccccc2Cl)n1 10 µM [inhibitor, partial curve, poor fit]
O=C(NNC(=O)c1ccccc1F)c1ccc(-c2ccc(Cl)cc2)o1 7.08 µM [inhibitor, partial curve, poor fit]
CCn1cc(C(=O)N2CCN(c3ccccn3)CC2)c(=O)c2cc(S(=O)(=O)N(C)C3CCCCC3)ccc21 7.94 µM [inhibitor, partial curve, poor fit]
COC(=O)CSC1=C(C#N)C(c2cccc(OC)c2)CC(=O)N1 (configuration not stated) 10 µM [inhibitor, single point]
Nc1cc(C(=O)OCC(=O)Nc2cccc(S(=O)(=O)N3CCOCC3)c2)ccc1Cl 28.2 µM [inhibitor, single point]
COc1ccc(C(=O)NCCN(C)C)c2nc3ccccc3cc12 11.2 µM [inhibitor, partial curve, poor fit]
Cc1c(C)n(Cc2ccc(F)cc2)c2ccc(C(=O)N3CCN(c4ccc(F)cc4)CC3)cc12 28.2 µM [inhibitor, single point]
CCC(C(=O)NCCc1ccccc1)n1nc(C)c2sc3ccccc3c2c1=O (configuration not stated) 12.6 µM [inhibitor, single point]
Cc1onc(-c2c(Cl)cccc2Cl)c1C(=O)NNc1ccccc1 5.62 µM [inhibitor, full curve, poor fit]
CCOc1ccccc1N1CCN(C(=O)c2ccc(Cl)c(S(=O)(=O)N3CCCCC3)c2)CC1 11.2 µM [inhibitor, partial curve, poor fit]

Activity change, negative = inhibition, inactive:
Cc1cc(Cl)cc2sc(NC(=O)c3ccco3)nc12 8.79%
C=C(C)C(C)(C#CCN1CCCC1)OC(C)=O (configuration not stated) -6.16%
O=C(NCCN1CCN(c2ccccc2F)CC1)C1c2ccccc2C(=O)N2CCc3ccccc3C12 (configuration not stated) -19.1%
COc1ccc(C(=O)Nc2ccc(C(F)(F)F)n(C)c2=O)cc1 21.8%
COCCNC(=O)c1ccccc1NC(=O)c1ccccc1SC 21.8%
Cc1nn(-c2nnc(C)c(=O)[nH]2)c(C)c1SCC(=O)Nc1ccc(C(C)C)cc1 -2.65%
COc1ccc(-c2ccc(-c3nnc(Cc4ccc(OC)c(OC)c4)o3)cc2)cc1 -0.386%
CCc1ccc(-c2nn(CC(=O)NC3CCCCC3)c3c2cnc2ccc(F)cc23)cc1 11.6%
O=C(c1nnc(Cc2ccc(Cl)cc2)o1)N1CCOCC1 -32.7%
COc1ccc(CNC(=O)c2cc3c(=O)n(Cc4cccnc4)ccc3nc2C)cc1 1.18%
COc1ccccc1CCNC(=O)Cc1ccc(NC(=O)N2CCSc3ncccc32)cc1 3.7%
COCCn1nnnc1C(c1cc2cc(C)cc(C)c2[nH]c1=O)N1CCN(c2ccccc2F)CC1 (configuration not stated) 2.27%
COCCOC(=O)C1=C(C)NC(=O)NC1c1cn(-c2ccccc2)nc1-c1cccs1 (configuration not stated) 20.3%

Activity change, negative = inhibition, inconclusive:
NC(=S)NN=C(Cc1ccccc1)Cc1ccccc1 -96.8% [inhibitor] [at 7.66 µM]
CCN(CC)CCCNC(=O)c1cc(-c2ccccc2)c(N2CCCCC2)s1 -40.5% [inhibitor]
